Reference: PMC3431309
Results are given in words; binding and its absence hold for the method and conditions named. In cells and extracts the contact can be indirect. Some binding calls cover weakened binding; strength is not graded here.

Chains of the proteins cited; added tags and fusions are not shown.
UniProt P40160: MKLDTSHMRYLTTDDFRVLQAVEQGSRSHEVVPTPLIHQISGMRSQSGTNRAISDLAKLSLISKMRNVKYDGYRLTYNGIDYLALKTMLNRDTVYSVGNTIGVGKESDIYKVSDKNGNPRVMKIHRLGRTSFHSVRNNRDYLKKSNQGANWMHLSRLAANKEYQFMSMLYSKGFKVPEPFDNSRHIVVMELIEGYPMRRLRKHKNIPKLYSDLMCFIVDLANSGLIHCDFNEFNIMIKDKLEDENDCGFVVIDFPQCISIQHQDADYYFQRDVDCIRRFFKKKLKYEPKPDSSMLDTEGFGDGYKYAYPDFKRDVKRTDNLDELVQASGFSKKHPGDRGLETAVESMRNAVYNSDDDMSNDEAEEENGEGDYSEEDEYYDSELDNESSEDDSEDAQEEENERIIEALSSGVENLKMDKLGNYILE

T1: Enp1-TAP (S. cerevisiae) (UniProt P38333)
T1 sequence: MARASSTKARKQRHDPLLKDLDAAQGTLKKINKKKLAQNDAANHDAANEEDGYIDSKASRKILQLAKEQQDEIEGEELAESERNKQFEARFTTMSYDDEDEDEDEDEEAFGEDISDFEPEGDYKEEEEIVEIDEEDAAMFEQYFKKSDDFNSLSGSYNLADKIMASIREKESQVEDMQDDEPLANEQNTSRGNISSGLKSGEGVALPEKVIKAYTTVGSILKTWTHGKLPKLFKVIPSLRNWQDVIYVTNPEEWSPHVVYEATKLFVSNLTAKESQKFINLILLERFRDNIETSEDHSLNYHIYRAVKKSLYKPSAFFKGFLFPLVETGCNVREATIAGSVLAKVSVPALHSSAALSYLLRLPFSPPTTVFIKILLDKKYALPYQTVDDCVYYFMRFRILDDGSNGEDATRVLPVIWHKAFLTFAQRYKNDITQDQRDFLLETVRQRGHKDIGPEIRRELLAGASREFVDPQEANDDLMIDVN

T2: Noc4-TAP (S. cerevisiae) (UniProt Q06512)
T2 sequence: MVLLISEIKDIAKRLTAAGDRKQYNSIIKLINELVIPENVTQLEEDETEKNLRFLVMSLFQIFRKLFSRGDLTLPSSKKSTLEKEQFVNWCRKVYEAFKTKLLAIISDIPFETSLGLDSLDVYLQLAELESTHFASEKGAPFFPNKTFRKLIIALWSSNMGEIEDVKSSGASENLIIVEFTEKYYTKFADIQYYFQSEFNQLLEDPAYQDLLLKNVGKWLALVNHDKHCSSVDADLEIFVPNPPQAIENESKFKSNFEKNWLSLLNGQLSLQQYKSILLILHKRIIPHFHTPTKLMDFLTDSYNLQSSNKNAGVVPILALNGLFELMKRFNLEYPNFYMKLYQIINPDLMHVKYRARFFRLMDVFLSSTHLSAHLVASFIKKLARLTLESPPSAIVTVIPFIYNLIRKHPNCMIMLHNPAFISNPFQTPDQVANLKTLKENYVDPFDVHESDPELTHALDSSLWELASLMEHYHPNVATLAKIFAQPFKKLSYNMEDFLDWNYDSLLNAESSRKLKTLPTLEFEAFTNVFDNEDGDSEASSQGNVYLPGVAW

T3: Hrr25-TAP (S. cerevisiae) (UniProt P29295)
T3 sequence: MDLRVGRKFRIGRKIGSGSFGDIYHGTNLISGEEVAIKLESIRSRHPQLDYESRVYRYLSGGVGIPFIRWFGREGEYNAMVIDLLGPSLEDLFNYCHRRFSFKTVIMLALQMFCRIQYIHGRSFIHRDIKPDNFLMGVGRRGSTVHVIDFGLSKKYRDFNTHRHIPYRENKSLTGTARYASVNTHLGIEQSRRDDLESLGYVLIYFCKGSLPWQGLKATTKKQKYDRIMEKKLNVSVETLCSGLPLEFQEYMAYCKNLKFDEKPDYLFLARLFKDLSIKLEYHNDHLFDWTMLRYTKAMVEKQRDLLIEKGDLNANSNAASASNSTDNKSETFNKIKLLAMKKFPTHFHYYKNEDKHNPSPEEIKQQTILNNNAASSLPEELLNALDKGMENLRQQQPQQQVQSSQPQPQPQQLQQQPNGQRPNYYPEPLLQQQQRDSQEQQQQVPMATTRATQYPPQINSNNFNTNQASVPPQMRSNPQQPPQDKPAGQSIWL

T4: Arx1-TAP (S. cerevisiae) (UniProt Q03862)
T4 sequence: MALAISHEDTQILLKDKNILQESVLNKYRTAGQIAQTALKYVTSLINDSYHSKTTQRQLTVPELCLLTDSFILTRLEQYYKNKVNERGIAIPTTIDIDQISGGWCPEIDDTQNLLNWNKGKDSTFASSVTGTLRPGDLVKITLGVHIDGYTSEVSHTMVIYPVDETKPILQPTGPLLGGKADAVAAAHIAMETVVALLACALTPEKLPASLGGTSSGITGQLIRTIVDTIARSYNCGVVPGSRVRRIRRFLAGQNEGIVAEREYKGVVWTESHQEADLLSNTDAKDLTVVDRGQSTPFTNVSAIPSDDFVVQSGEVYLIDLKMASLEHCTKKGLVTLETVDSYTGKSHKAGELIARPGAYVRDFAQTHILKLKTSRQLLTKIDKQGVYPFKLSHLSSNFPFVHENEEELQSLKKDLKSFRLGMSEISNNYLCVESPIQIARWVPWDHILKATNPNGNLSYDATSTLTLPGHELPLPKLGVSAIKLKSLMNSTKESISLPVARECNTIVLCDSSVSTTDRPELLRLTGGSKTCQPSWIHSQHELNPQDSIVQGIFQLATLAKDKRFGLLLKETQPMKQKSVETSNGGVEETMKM


Key:
Enp1-TAP (S. cerevisiae) = biological target: T1, Enp1-TAP (S. cerevisiae); experiment: co-IP; tandem affinity purification (TAP) of pre-ribosomal particles via TAP-tagged bait from yeast lysate; lysis buffer 50 mM Tris-HCl pH 7.5, 75 mM NaCl, 1.5 mM MgCl2, 0.15% NP-40; calmodulin-sepharose eluates analysed by Western blot; also from slx9Δ, mex67Δloop and mtr2Δloop116-137 strains
Noc4-TAP (S. cerevisiae) = biological target: T2, Noc4-TAP (S. cerevisiae); experiment: as above
Rio2-TAP (S. cerevisiae) [1] = biological target: Rio2-TAP (S. cerevisiae) (UniProt P40160); experiment: as above
Rio2-TAP (S. cerevisiae) [2] = biological target: Rio2-TAP (S. cerevisiae) (UniProt P40160); experiment: co-IP; Rio2-TAP purified with lysis buffer of 100 mM NaCl; calmodulin-sepharose eluate, Western blot
Rio2-TAP (S. cerevisiae) [3] = biological target: Rio2-TAP (S. cerevisiae) (UniProt P40160); experiment: co-IP; Rio2-TAP purified with lysis buffer of 50 mM NaCl; calmodulin-sepharose eluate, Western blot
[4] = biological target: T3, Hrr25-TAP (S. cerevisiae); experiment: co-IP; tandem affinity purification (TAP) of pre-ribosomal particles via TAP-tagged bait from yeast lysate; lysis buffer 50 mM Tris-HCl pH 7.5, 75 mM NaCl, 1.5 mM MgCl2, 0.15% NP-40; calmodulin-sepharose eluates analysed by Western blot; also from slx9Δ, mex67Δloop and mtr2Δloop116-137 strains
Arx1-TAP (S. cerevisiae) = biological target: T4, Arx1-TAP (S. cerevisiae); experiment: as above

Binder	binding (Enp1-TAP (S. cerevisiae))	binding (Noc4-TAP (S. cerevisiae))	binding (Rio2-TAP (S. cerevisiae) [1])	binding (Rio2-TAP (S. cerevisiae) [2])	binding (Rio2-TAP (S. cerevisiae) [3])	binding [4]	binding (Arx1-TAP (S. cerevisiae))
Slx9 (protein, UniProt P53251 1-210) MVAKKRNTLRSKVSARNSQNFGPDVANNGILDESYDIESDPRAFLHQPKETKKEKLLNRQNTFLSNLKGKSTLNDGIAANFDGISKSSIRRRKRKLREELKPRMQDLLTSLEQEKDLRGIIENSSKDMNNDDDIDMDSKIRFVDTKEMNLKKIEPGSVRIKKNQPNIRNQKGAKALAANETARFNQVLTNQDFQKNPFGALREVIKLQKQ	binds	binds weakly	binds weakly	–	–	–	–
Mex67-Mtr2 (complex, UniProt Q99257 1-599; P34232 1-184) chain 1: MSGFHNVGNINMMAQQQMQQNRIKISVRNWQNATMNDLINFISRNARVAVYDAHVEGPLVIGYVNSKAEAESLMKWNGVRFAGSNLKFELLDNNGASAGTSDTISFLRGVLLKRYDPQTKLLNLGALHSDPELIQKGVFSSISTQSKMFPAMMKLASTEKSLIVESVNLADNQLKDISAISTLAQTFPNLKNLCLANNQIFRFRSLEVWKNKFKDLRELLMTNNPITTDKLYRTEMLRLFPKLVVLDNVIVRDEQKLQTVYSLPMKIQQFFFENDALGQSSTDFATNFLNLWDNNREQLLNLYSPQSQFSVSVDSTIPPSTVTDSDQTPAFGYYMSSSRNISKVSSEKSIQQRLSIGQESINSIFKTLPKTKHHLQEQPNEYSMETISYPQINGFVITLHGFFEETGKPELESNKKTGKNNYQKNRRYNHGYNSTSNNKLSKKSFDRTWVIVPMNNSVIIASDLLTVRAYSTGAWKTASIAIAQPPQQQASVLPQVASMNPNITTPPQPQPSVVPGGMSIPGAPQGAMVMAPTLQLPPDVQSRLNPVQLELLNKLHLETKLNAEYTFMLAEQSNWNYEVAIKGFQSSMNGIPREAFVQF chain 2: MNTNSNTMVMNDANQAQITATFTKKILAHLDDPDSNKLAQFVQLFNPNNCRIIFNATPFAQATVFLQMWQNQVVQTQHALTGVDYHAIPGSGTLICNVNCKVRFDESGRDKMGQDATVPIQPNNTGNRNRPNDMNKPRPLWGPYFGISLQLIIDDRIFRNDFNGVISGFNYNMVYKPEDSLLKI	binds	binds	binds	no binding (condition: at 100 mM NaCl)	binds	binds	binds
Mex67Δloop-Mtr2 (complex, UniProt Q99257 1-599; P34232 1-184) chain 1: MSGFHNVGNINMMAQQQMQQNRIKISVRNWQNATMNDLINFISRNARVAVYDAHVEGPLVIGYVNSKAEAESLMKWNGVRFAGSNLKFELLDNNGASAGTSDTISFLRGVLLKRYDPQTKLLNLGALHSDPELIQKGVFSSISTQSKMFPAMMKLASTEKSLIVESVNLADNQLKDISAISTLAQTFPNLKNLCLANNQIFRFRSLEVWKNKFKDLRELLMTNNPITTDKLYRTEMLRLFPKLVVLDNVIVRDEQKLQTVYSLPMKIQQFFFENDALGQSSTDFATNFLNLWDNNREQLLNLYSPQSQFSVSVDSTIPPSTVTDSDQTPAFGYYMSSSRNISKVSSEKSIQQRLSIGQESINSIFKTLPKTKHHLQEQPNEYSMETISYPQINGFVITLHGFFEETGKSNNKLSKKSFDRTWVIVPMNNSVIIASDLLTVRAYSTGAWKTASIAIAQPPQQQASVLPQVASMNPNITTPPQPQPSVVPGGMSIPGAPQGAMVMAPTLQLPPDVQSRLNPVQLELLNKLHLETKLNAEYTFMLAEQSNWNYEVAIKGFQSSMNGIPREAFVQF chain 2: MNTNSNTMVMNDANQAQITATFTKKILAHLDDPDSNKLAQFVQLFNPNNCRIIFNATPFAQATVFLQMWQNQVVQTQHALTGVDYHAIPGSGTLICNVNCKVRFDESGRDKMGQDATVPIQPNNTGNRNRPNDMNKPRPLWGPYFGISLQLIIDDRIFRNDFNGVISGFNYNMVYKPEDSLLKI	no binding	–	no binding	–	–	–	–
Mex67-Mtr2Δloop116-137 (complex, UniProt Q99257 1-599; P34232 1-184) chain 1: MSGFHNVGNINMMAQQQMQQNRIKISVRNWQNATMNDLINFISRNARVAVYDAHVEGPLVIGYVNSKAEAESLMKWNGVRFAGSNLKFELLDNNGASAGTSDTISFLRGVLLKRYDPQTKLLNLGALHSDPELIQKGVFSSISTQSKMFPAMMKLASTEKSLIVESVNLADNQLKDISAISTLAQTFPNLKNLCLANNQIFRFRSLEVWKNKFKDLRELLMTNNPITTDKLYRTEMLRLFPKLVVLDNVIVRDEQKLQTVYSLPMKIQQFFFENDALGQSSTDFATNFLNLWDNNREQLLNLYSPQSQFSVSVDSTIPPSTVTDSDQTPAFGYYMSSSRNISKVSSEKSIQQRLSIGQESINSIFKTLPKTKHHLQEQPNEYSMETISYPQINGFVITLHGFFEETGKPELESNKKTGKNNYQKNRRYNHGYNSTSNNKLSKKSFDRTWVIVPMNNSVIIASDLLTVRAYSTGAWKTASIAIAQPPQQQASVLPQVASMNPNITTPPQPQPSVVPGGMSIPGAPQGAMVMAPTLQLPPDVQSRLNPVQLELLNKLHLETKLNAEYTFMLAEQSNWNYEVAIKGFQSSMNGIPREAFVQF chain 2: MNTNSNTMVMNDANQAQITATFTKKILAHLDDPDSNKLAQFVQLFNPNNCRIIFNATPFAQATVFLQMWQNQVVQTQHALTGVDYHAIPGSGTLICNVNCKVRFDESGRDKMGQDRPLWGPYFGISLQLIIDDRIFRNDFNGVISGFNYNMVYKPEDSLLKI	no binding	–	no binding	–	–	–	–
